Source: the supplement of paper PMC3334620
The full ranking holds about 33,000 sequences; the median of “E-score (-0.5 to 0.5)” is about -0.036, and the highest 2% start at about 0.37. The list shows a part of the results.

Molecular target: T1, Yer064c (UniProt P40041)
T1 sequence: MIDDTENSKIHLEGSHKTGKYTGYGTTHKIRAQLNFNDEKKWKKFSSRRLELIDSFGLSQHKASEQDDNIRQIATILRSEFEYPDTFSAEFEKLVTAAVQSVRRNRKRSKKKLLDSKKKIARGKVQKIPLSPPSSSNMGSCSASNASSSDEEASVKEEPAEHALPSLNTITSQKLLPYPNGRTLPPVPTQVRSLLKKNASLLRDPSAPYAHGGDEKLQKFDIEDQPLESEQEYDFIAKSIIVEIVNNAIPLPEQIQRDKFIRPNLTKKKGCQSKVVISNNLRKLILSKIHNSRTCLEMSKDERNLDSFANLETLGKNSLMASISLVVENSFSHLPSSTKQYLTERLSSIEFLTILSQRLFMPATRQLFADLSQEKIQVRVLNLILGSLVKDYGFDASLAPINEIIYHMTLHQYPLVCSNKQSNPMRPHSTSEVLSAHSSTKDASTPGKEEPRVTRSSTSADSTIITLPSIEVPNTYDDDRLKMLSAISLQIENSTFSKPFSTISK
Assay: PBM E-score (8-mer binding enrichment) (E-score (-0.5 to 0.5)); higher = stronger / more preferred TF binding; most listed sequences are background and not binding sites
Details: protein concentration: 200 nM; construct: GST-full length
In short: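 Detection of bound protein used fluorescent anti-GST, with scans normalised by masliner. The proteins were GST-tagged yeast transcription factors applied at about 100-200 nM to universal all-10-mer Agilent arrays made double-stranded by primer extension. Each ungapped eight-base word, pooled with its reverse complement, was scored with an E-score from the Universal PBM Analysis Suite.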

Sequence | PBM E-score
GAAGAGCC | -0.222
ATATAGTG | 0.0402
ACCGCACG | -0.0881
ACTCGCAC | 0.181
AATGTTCC | -0.0194
GTTCACTA | -0.0259
CAATTGCG | -0.0914
CCCGTCGG | -0.058
GCCCCAAC | 0.0476
AGGTCATC | 0.18
AAAGGTTC | -0.25
TCAGTGCA | 0.056
AGAATACG | -0.0667
CTTGGTCC | -0.205
CACAACAG | -0.0343
AAGGGAAG | 0.0707
AACCGGGA | -0.00991
CAGCAGGA | -0.0802
GAACACAC | 0.0728
CAAATCCG | -0.213
CAATGGTC | 0.183
AAGGTGTA | 0.00153

Sequence | PBM E-score
CACTGCCA | 0.00516
ACTGGCTG | -0.0516
GCGACTAC | 0.391
ACAACTCC | -0.2
AAAGCATT | -0.01
CCATGCAA | -0.173
AACCCAGT | -0.0689
GGGGGACC | -0.263
CGATCTAA | 0.0729
CTATACGC | 0.0177
CTGCTTCC | -0.371
AGAAGTTC | -0.0131
CAGTCCCA | 0.134
AATGCTCC | -0.257
CAACCTAG | -0.104
AGCCTGGG | -0.158
GTCGAAAA | -0.00581
ATAATGGC | -0.0632
ATCCGGGG | -0.0717
TAAAACTA | 4e-05
AATTAACA | 0.109
TGGCGACA | -0.0682

Sequence | PBM E-score
AGCTGTGA | 0.128
CTTTAGTA | 0.14
AGAATGAT | 0.225
CAATAGTA | -0.0839
AAGTACTC | 0.282
GTTCGTAA | 0.054
GTTGTCCA | 0.0202
AAATCCAG | -0.0728
ACGCTTAT | -0.0958
GACCAGGC | -0.197
AGAGACAG | -0.0696
GTGCAGAA | -0.117
AGATTAGC | 0.123
CTAGGATC | -0.157
ATTTGGAA | 0.00722
TAATTCCA | -0.0152
AAGGTCAA | -0.0628
AACTCCAC | -0.115
GCAGAGCA | -0.173
CTTGCGAC | 0.158
ATAGGGTA | -0.0458
GAGTCCTA | 0.399

Sequence | PBM E-score
ATCGAGCC | 0.0378
CGGCCCCA | -0.261
GCTTAACA | -0.0624
CATGCATA | 0.00799
TGAAGGCA | -0.0731
CTCACATA | 0.116
TAGTGGAA | -0.27
TCGGTGCA | -0.151
CCGGCAGA | -0.182
CGGCGATC | -0.0422
GCGCCGGA | -0.233
CGGTCCTC | -0.258
CAGGTGAC | 0.352
GGTCATGA | 0.255
CGAAACTA | 0.0571
CCTCGCGC | -0.0733
AGTGCAAT | 0.04
ATCTATGA | 0.215
AGGCCCCG | -0.286
ATCTAGAG | 0.168
